Hit rate of the full screen: of about 48,000 compounds, about 550 (1.1%) were called active. About 4% were inconclusive and are not listed. Cut-off read from the data, not from the text of the source: active = potency below about 15 µM; inconclusive = mostly about 16 µM to 33 µM; inactive = weaker than that. This is one part of the list.
These compounds were tested against Lysosomal acid glucosylceramidase (Homo sapiens) (UniProt P04062) (assay: Glucocerebrosidase). Conditions: purified enzyme, resorufin glucoside fluorescence (screen aimed at inhibitors), 20 min.
Summary of the method: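 Normal human glucocerebrosidase (0.2 nM final) was assayed with resorufin β-D-glucopyranoside (30 uM final) in 50mM citric acid/KH2PO4, 10mM sodium taurocholate, 0.01% tween-20, pH 5.9. Compounds were titrated; fluorescence (Ex 548, Em 600) read after 20 min at RT.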
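Note: the screen sought inhibitors.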
Potency is the fitted concentration of half-maximal effect.

Sequence of UniProt P04062 (P04062 whole entry, looked up): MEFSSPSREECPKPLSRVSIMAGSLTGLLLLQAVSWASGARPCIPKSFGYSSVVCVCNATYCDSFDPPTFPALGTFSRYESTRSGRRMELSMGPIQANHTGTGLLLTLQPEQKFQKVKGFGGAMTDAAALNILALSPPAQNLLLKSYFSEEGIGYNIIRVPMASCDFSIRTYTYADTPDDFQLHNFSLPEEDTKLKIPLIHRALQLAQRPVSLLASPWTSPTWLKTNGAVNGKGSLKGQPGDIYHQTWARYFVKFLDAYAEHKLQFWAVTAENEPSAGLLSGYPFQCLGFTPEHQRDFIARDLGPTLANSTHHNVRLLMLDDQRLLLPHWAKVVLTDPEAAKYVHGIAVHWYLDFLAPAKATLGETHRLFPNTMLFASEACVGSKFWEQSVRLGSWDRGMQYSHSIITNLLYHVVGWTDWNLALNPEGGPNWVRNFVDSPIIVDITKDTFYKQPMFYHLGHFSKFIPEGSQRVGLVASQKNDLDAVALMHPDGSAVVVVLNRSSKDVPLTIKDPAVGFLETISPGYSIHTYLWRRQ

Potency, inactive:
CCOC(=O)C1CCN(C(=O)C2CCCCC2)CC1 > 76.9 µM
O=C(O)CCCC(=O)Nc1ccc(C(=O)N2CCCCC2)c(Cl)c1 > 76.9 µM
COC(=O)C1=C(CN2CCN(C)CC2)NC(=O)NC1c1cc(C)ccc1C (stereo unspecified) > 76.9 µM
COC(=O)c1ccccc1NC(=O)CN1CCC(NC(=O)c2ccc(C)cc2)CC1 > 76.9 µM
COc1ccc(Br)cc1CNC(=O)C1CCN(S(=O)(=O)N2CCCCC2)CC1 > 76.9 µM
Cc1nn2c3ccccc3nc2n(Cc2ccccc2)c1=O > 76.9 µM
CCc1nnc(NC(=O)c2nc3nccc(C)n3n2)s1 > 76.9 µM
O=C(NCCN1CCOCC1)c1csc2c1CCCCC2
Cc1nnc(SCC(=O)NCc2ccc3c(c2)OCO3)[nH]c1=O > 76.9 µM
Cn1c(N)c(C(=O)COC(=O)CCC(=O)c2cccs2)c(=O)n(C)c1=O > 76.9 µM
NC(Cc1cccc2nsnc12)C(=O)O (stereo unspecified) > 76.9 µM
COc1ccc2nc(C)cc(N3CC(C)OC(C)C3)c2c1 (stereo unspecified) > 76.9 µM
CCCCN(C)C(=O)C1CCC(=O)N(c2cc(OC)c(OC)c(OC)c2)C1c1ccc(OC)cc1 (stereo unspecified) > 76.9 µM
CCOc1cc(C#N)c(NC(=O)c2ccco2)cc1OCC > 76.9 µM
COc1ccc(C(=O)N(Cc2nc(-c3ccc(C)cc3)no2)C2CCCCC2)cc1OC > 76.9 µM
COc1ccc(C)cc1NC(=O)c1ccc(N(C)S(C)(=O)=O)cc1 > 76.9 µM
CC(=O)C1C(c2cccc(F)c2)NC(=O)NC1(O)C(F)(F)F (stereo unspecified) > 76.9 µM
CCOC(=O)c1sc(NC(=O)c2ccc(CC)s2)nc1C > 76.9 µM
CCC(CC)C(=O)NCCNC(=O)C(CC)CC > 76.9 µM
COc1ccccc1NC(=O)CSc1nnc(-c2ccncc2)n1CC1CCCO1 (stereo unspecified) > 76.9 µM
COC(=O)c1ccccc1NC(=O)COc1ccc(S(=O)(=O)N2CCCC2)cc1C > 76.9 µM
Cc1ccc(S(=O)(=O)C2(C(=O)N3CCCC(C)C3)CC2)cc1 (stereo unspecified) > 76.9 µM
COc1ccc(Cl)cc1-c1nc(-c2ccncc2)no1 > 76.9 µM
CCCCCn1c(CN2CCN(C(=O)OCC)CC2)nc2c1c(=O)[nH]c(=O)n2C > 76.9 µM
Cc1nnc(SCc2ccc(CC(=O)O)cc2)o1 > 76.9 µM
O=C1CCN(Cc2nnnn2CC2CCCO2)c2ccccc2N1 (stereo unspecified) > 76.9 µM
